In paper PMC7819943, “Rice protein-binding microarrays: a tool to detect cis-acting elements near promoter regions in rice” one finds binding signal data, which are given here for 42 sequences.

The other results are listed elsewhere or left out.

This assay deals with T1, OsWOX13 (Oryza sativa, UniProt Q5QMM3 1-267).
T1 sequence: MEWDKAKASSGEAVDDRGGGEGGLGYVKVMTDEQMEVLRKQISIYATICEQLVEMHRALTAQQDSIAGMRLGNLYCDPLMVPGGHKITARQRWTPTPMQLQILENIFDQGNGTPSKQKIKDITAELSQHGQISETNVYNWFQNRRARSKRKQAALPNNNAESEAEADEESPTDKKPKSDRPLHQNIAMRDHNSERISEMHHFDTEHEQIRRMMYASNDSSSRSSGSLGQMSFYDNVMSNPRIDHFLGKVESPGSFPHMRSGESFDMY
Nature of the assay: protein-binding microarray (RPBM); PBS, 2% BSA, 51.3 ng/ul salmon testes DNA, 50 uM zinc acetate, 200 nM TF, 25 C, 1 h; high values mean tight binding. As to conditions: protein: recombinant; tags: N-terminal polyhistidine and DsRed monomer fusion (pET32a); label: CyDye5-dUTP incorporated in the synthesized complementary strand; 3' TTTTT single-stranded linker to array surface; dsDNA, one strand shown. In a few lines: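 Binding signal here means per-feature fluorescence intensity in arbitrary units. The values were read on an Axon 4000B scanner after a custom Agilent array, double-stranded by primer extension with Cy5-dUTP, was incubated with 200 nM protein at 25 °C for 1 h in PBS with 2% BSA, salmon testes DNA and 50 µM zinc acetate, then washed. The proteins were transcription factors with an N-terminal polyhistidine tag and DsRed, expressed in E. coli BL21-CodonPlus and purified on Ni–NTA.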
Consider “ATAGATTGACTTTGACCAAAGTCAAAACGTCATGTAAACTCGGAGTCACCTAGTGCAG”, for which the binding signal is 31300 fluorescence intensity (a.u.).
The figure for “CAGCATTCAAATTAAGGTGAGATTATTAACATAGTCCCAGCGGAGTCACCTAGTGCAG” is 3700 fluorescence intensity (a.u.); for “ATATGATTATATTTGATGATGCAGCAGTCACGAATGTTTTCGGAGTCACCTAGTGCAG” it is 36200 fluorescence intensity (a.u.); for “CGCTGATGAATCGTTGCGGGTTGCCGCTTTGGACACCGCCCGGAGTCACCTAGTGCAG” it is 3410 fluorescence intensity (a.u.).
As for “TTCGATTAGCATGTCATTGCACCAAACAAGCTTCTGCTTCCGGAGTCACCTAGTGCAG”, the binding signal is 3790 fluorescence intensity (a.u.).
Consider “ATTATACGTTTGCTACTAATTTATACATGATGTTCATATTCGGAGTCACCTAGTGCAG”, for which the binding signal is 3480 fluorescence intensity (a.u.).
For the sequence “AGCCGATTGCCTTTATATCATCATCTACATTGGACATATACGGAGTCACCTAGTGCAG”, the binding signal was 3150 fluorescence intensity (a.u.).
Turning to “ATATACCCTTAAATAATTATCATAAACTCATTTTCATCCACGGAGTCACCTAGTGCAG”, the binding signal is 3990 fluorescence intensity (a.u.).
The figure for “TTATTAATATATTTAATTTAATGATCCGAGATAACATATCCGGAGTCACCTAGTGCAG” is 15200 fluorescence intensity (a.u.); for “GTCATTGATTGTTCAAAGCGATAATTATTATCAAACCGGTCGGAGTCACCTAGTGCAG” it is 35500 fluorescence intensity (a.u.).
The figure for “AGTGGGTGGTGATTAGCAGGGACACCTCATTTTCGTTAGCCGGAGTCACCTAGTGCAG” is 3760 fluorescence intensity (a.u.); for “TTGAGACAGATAGTTTGGTACTATCAGATTTCAGTTCCGTCGGAGTCACCTAGTGCAG” it is 3720 fluorescence intensity (a.u.).
For “ACCCGTGATTTGGTGGACTCGCGCATGGCGGTGATCAGCGCGGAGTCACCTAGTGCAG”, the binding signal was 7960 fluorescence intensity (a.u.).
The figure for “TAACTTGCAATTAATTACAATCTTTCCAAAATAAGTACTCCGGAGTCACCTAGTGCAG” is 16900 fluorescence intensity (a.u.).
In the case of “GTACAACTTAATTAGACCATAATATCTAAGGTTGCGTAATCGGAGTCACCTAGTGCAG”, the binding signal is 4570 fluorescence intensity (a.u.).
The figure for “ATTACTAATTCCGCATATCAGCACACCGCACAAAATCCAACGGAGTCACCTAGTGCAG” is 3730 fluorescence intensity (a.u.); for “CGGAATATAATTAAGAGAAATCCATGCGTAGGCCATGTAGCGGAGTCACCTAGTGCAG” it is 5610 fluorescence intensity (a.u.); for “TTAATTAGCTCTCTCACCATTCATCTATCTATGTCTCTTCCGGAGTCACCTAGTGCAG” it is 5060 fluorescence intensity (a.u.).
The figure for “TATTGCAGATTGGAGGCAGTAACTTCTTGGGAAAGGCACCCGGAGTCACCTAGTGCAG” is 3230 fluorescence intensity (a.u.); for “CTATTCACCAATCACGCAAAACCCTTCTCTCCAAGAACACCGGAGTCACCTAGTGCAG” it is 9240 fluorescence intensity (a.u.).
Take “CGGCGTCAATCTTCTCCCCATCACGCGCTCGCTCCTCTCTCGGAGTCACCTAGTGCAG”: the binding signal was 17500 fluorescence intensity (a.u.).
The figure for “CAAAATCAAATTATTTCAAATTTGATCAAGTTTGTATAGACGGAGTCACCTAGTGCAG” is 16700 fluorescence intensity (a.u.); for “ATAGTGTTTAATTACAAATTGTCTGTCATCCCTGTCTGAACGGAGTCACCTAGTGCAG” it is 12800 fluorescence intensity (a.u.); for “TATTAAATTGTCAGTTTGTGTACCTCGGCTGATTCCTGGACGGAGTCACCTAGTGCAG” it is 19400 fluorescence intensity (a.u.).
As to “GAGGTTATTTGATCAAATTTTGTCGATAGTAAACAATGTACGGAGTCACCTAGTGCAG”, the binding signal was 4550 fluorescence intensity (a.u.).
For “GGGGTGTTAGTTAATTGCATGTATCCGTACGTGACTTGTACGGAGTCACCTAGTGCAG”, the binding signal was 7590 fluorescence intensity (a.u.).
The figure for “TATTAAATTGGCTATAGGTGATTTGGAGCTAATAGTTAGCCGGAGTCACCTAGTGCAG” is 24000 fluorescence intensity (a.u.); for “GTTGTAAAATTTAATTTTCTTACTATATAATTTTCTTTCACGGAGTCACCTAGTGCAG” it is 7230 fluorescence intensity (a.u.); for “ATAAGACAGACAGTCAAACGTTGGCACGAGAACCCATGGTCGGAGTCACCTAGTGCAG” it is 6820 fluorescence intensity (a.u.).
“AATGCAGGAACAGCATAAGCTTTGCGTATATTTGTATTAACGGAGTCACCTAGTGCAG”: the binding signal was 65500 fluorescence intensity (a.u.).
In the case of “CACTTAATCATATTCATCATATTCAAACGGGACCTAAGGGCGGAGTCACCTAGTGCAG”, the binding signal was 8880 fluorescence intensity (a.u.).
The figure for “GATAATTTCATCCTTACAAGAAACTGTCTAACCAATCGGGCGGAGTCACCTAGTGCAG” is 15100 fluorescence intensity (a.u.).
For the sequence “CGTAAACAAATAGGTCCAACATAATTTAACCTTCATAGAGCGGAGTCACCTAGTGCAG”, the binding signal was 5570 fluorescence intensity (a.u.).
As to “TTTTAAATCAATGGTTAGTAATTGAAAATTCTTCTAAATTCGGAGTCACCTAGTGCAG”, the binding signal was 16600 fluorescence intensity (a.u.).
The figure for “AATTATTTAAATCAATGTAACTCAAAAGTTAATAAACGTGCGGAGTCACCTAGTGCAG” is 13100 fluorescence intensity (a.u.); for “CCTAATTACACCATGATTTAACAATATGGTGCTATAGTAACGGAGTCACCTAGTGCAG” it is 31800 fluorescence intensity (a.u.).
For “CAAGATGATGAATGCCATTTGATTCTAGGCTAATAGTGGCCGGAGTCACCTAGTGCAG”, the binding signal is 7620 fluorescence intensity (a.u.).
Turning to “TAAACACTTGAATGATTTTGTAATTGTTATTTAAGGGTCCCGGAGTCACCTAGTGCAG”, the binding signal is 8660 fluorescence intensity (a.u.).
The figure for “CACATAAATTGTGAAGAGTGGAAATTGAGCTGTCATTTAGCGGAGTCACCTAGTGCAG” is 3590 fluorescence intensity (a.u.).
As to “AAAGTTAAAATTTAAATTTTCGAATGTTAATTTTAAGATACGGAGTCACCTAGTGCAG”, the binding signal was 6010 fluorescence intensity (a.u.).
Consider “CCCGCGATTAGCAGCTCATTAATTCCACTCCAAATTTAATCGGAGTCACCTAGTGCAG”, for which the binding signal is 4280 fluorescence intensity (a.u.).
Take “ACCAAACTTACAATTTTGACACGATCAACCCAAACTATGACGGAGTCACCTAGTGCAG”: the binding signal was 3670 fluorescence intensity (a.u.).
